# Reference: PubChem BioAssay AID686971 (National Center for Advancing Translational Sciences (NCATS), 2013)
# Among all 360,000 compounds or so, about 7,500 (2.1%) were called active. The shares of active, inactive and inconclusive entries below differ from those in the screen. The call rests on the fitted dose curve; in most records, active means well fitted cell-killing curve with a large enough effect; inconclusive means small, poorly fitted or top-dose-only effect, or effect the other way, or another doubt; inactive means no such curve, though single readings can be large or run the other way. No potency is given beside an inconclusive call; the fits are too rough.
# Assay: qHTS for induction of synthetic lethality in tumor cells producing 2HG: qHTS for the HT-1080-IDH1KD cell line;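 on activity, negative = toxicity: 0% = DMSO wells and -100% = cell-free medium wells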
# Details: HT-1080 IDH1 knockdown viability, ATP luminescence, 48 h; activity, negative = toxicity: at 46.1 µM (top of the series) unless noted
# Outline: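 Using the IDH1-knockdown HT-1080 line run in the same batch and compound series as the NT line, viability after 48 h at 37 °C was determined by CellTiter-Glo luminescence and expressed as % activity.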
# Potency means the concentration at half of the fitted maximal effect; tags describe the fitted curve by direction and shape.
Structure (SMILES),Potency,"activity, negative = toxicity"
CC(C)Cc1ccc(-c2cc3nc(NCc4cccc(Cl)c4)ccn3n2)cc1,active: 20.6 µM,
O=C(CNc1cccc(Br)c1)Nc1ccc(S(=O)(=O)N2CCCCC2)cc1,"inconclusive [cytotoxic, single point]",
CCN(CC(=O)Nc1ccc(NC(C)=O)cc1)C(=O)c1ccc(COc2ccc(C(C)(C)C)cc2)cc1,"inconclusive [cytotoxic, single point]",
CCCc1nc2ccc(Br)cn2c1Cc1cccc(Cl)c1,"inconclusive [cytotoxic, single point]",
COc1ccc(NC(=O)COc2cc(O)c3c(c2)OC(C)(C)CC3=O)cc1,,inactive: -2.55%
O=C(NCc1ccc(Cl)cc1)C1CC(O)CN1S(=O)(=O)c1ccc(Cl)cc1 (centres undefined),,inactive: -0.171%
CCOc1ccc2nc(SCC3CC3(Cl)Cl)[nH]c2c1 (centres undefined),,inconclusive: -33.7% [cytotoxic]
COC(=O)c1ccc(NC(=O)COc2ccc3c(c2)OCO3)cc1,"inconclusive [cytotoxic, single point]",
CC(=O)N(C(C)=O)c1ncc2c([nH]c3ccccc32)c1C#N,active: 7.08 µM,
O=C(NCc1nnc(SCC(=O)N2CCC(Cc3ccccc3)CC2)o1)c1ccccc1F,,inactive: -4.59%
COc1cccc(C(=O)Nc2nnc(S(=O)(=O)N(C)Cc3ccccc3)s2)c1,,inactive: -13.8%
CCN(CC)c1ccc(/C=N/NC(=O)c2cccc(S(=O)(=O)N3CCOCC3)c2)c(O)c1,"inconclusive [cytotoxic, partial curve]",
CCCN1C(=O)/C(=C/c2ccc(C)o2)SC1=Nc1ccc(OC)cc1,"inconclusive [cytotoxic, partial curve]",
O=C(CCl)N1CCN(S(=O)(=O)Cc2ccccc2)CC1,"inconclusive [cytotoxic, single point]",
CCn1c(O)c(C=NC2CCCC(C)C2C)sc1=S (centres undefined),"inconclusive [cytotoxic, single point]",
N#C/C(=C\c1cccnc1)C(=O)Nc1ccccc1[N+](=O)[O-],,inactive: 0.957%
Cc1ccc2c(c1)c1nc3ccccc3nc1n2C,,inactive: -2.35%
Nc1nn(-c2ccccc2)c(N)c1N=Nc1ccc2c(c1)OCO2,active: 6.51 µM,
COc1ccc(-c2cc(=O)oc3cc(OCC(=O)NCC(O)c4ccccc4)ccc23)cc1 (centres undefined),,inactive: 6.93%
C[C@H](O)Cc1cc2ccccc2c(=O)o1,,inactive: 2.42%
Cc1ccc(Cl)cc1NC(=S)N(CCN(C)C)C(C)c1ccccn1 (centres undefined),,inactive: -1.01%
O=C(NC(c1ccc(Cl)cc1)c1cnccn1)C1CCN(Cc2cccc(C(F)(F)F)c2)CC1 (centres undefined),"inconclusive [cytotoxic, partial curve]",
Cc1c(F)cccc1NS(=O)(=O)c1ccc(OCCNS(C)(=O)=O)cc1,,inactive: -1.2%
O=C(c1cn(-c2ccccc2)nc1-c1ccc(Cl)s1)N1CCOCC1,"inconclusive [cytotoxic, single point]",
CCCCC[C@@H](/C=C/C1C(=O)C=C[C@H]1C/C=C\CCCC(=O)OC)OC(C)=O (some centres undefined),"inconclusive [cytotoxic, single point]",

Structure (SMILES),Potency,"activity, negative = toxicity"
COC(=O)c1ccc(Cn2c(C)c(C(=O)NCc3ccc(C#N)cc3)sc2=O)o1,"inconclusive [cytotoxic, single point]",
CC12CCC3C(=CCc4cc(O)ccc43)C1CC(=NO)C2O (centres undefined),,inactive: 9.65%
O=C(c1cccc(Br)c1)N1CCN(S(=O)(=O)N2CCCCCC2)CC1,,inactive: -4.22%
Cc1ccc(S(=O)(=O)N2CCN(CCNC(=O)C(=O)Nc3ccc(F)cc3)CC2)cc1,"inconclusive [cytotoxic, single point]",
CCOC(=O)N1CCC(N2C(=O)c3ccc(C(=O)Nc4cccc(OC)c4)cc3C2=O)CC1,,inactive: 4.59%
CCOc1ccc(NCc2cccn2-c2nnc(N3CCC(C(=O)NCCCN4CC(C)CC(C)C4)CC3)s2)cc1 (centres undefined),"inconclusive [cytotoxic, single point]",
COc1cc(C(=O)NCC(=O)NCC2COc3ccccc3O2)cc(OC)c1OC (centres undefined),,inactive: 1.55%
Cc1ccc(C(O)c2ncc(-c3cccc4ccccc34)[nH]2)cc1F (centres undefined),"inconclusive [cytotoxic, single point]",
CC(C)CC(=O)NC(=S)Nc1cc(C(F)(F)F)ccc1N1CCOCC1,,inactive: -11.9%
Cc1ccc(C2C3CSCC=C3C(C#N)=C(N)C2(C#N)C#N)cc1 (centres undefined),"inconclusive [cytotoxic, single point]",
C=CCC(COCc1ccccc1)NS(=O)(=O)c1ccccc1Br (centres undefined),,inactive: 3.26%
COc1ccc(-c2c(C)nn3c(N4CCCCCC4)cc(C)nc23)cc1OC,"inconclusive [cytotoxic, partial curve]",
CC(=O)Nc1cccc(-c2ccnc3c2CC(C)(C(=O)Nc2ccc(C(C)C)cc2)O3)c1 (centres undefined),"inconclusive [cytotoxic, single point]",
CC1(Cc2ccccc2C#N)C(=O)Nc2ccc(-c3ccc4[nH]ccc4c3)cc21 (centres undefined),active: 1.64 µM,
CCc1nc2c(OCc3ccc(Cl)cc3Cl)cccn2c1N(C)C(C)=O,"inconclusive [cytotoxic, single point]",
O=C(Cc1cccs1)Nc1nc(-c2ccccc2)cs1,"inconclusive [cytotoxic, single point]",
FC(F)Sc1ccc(NC(=S)NC(c2ccccc2)c2ccccc2)cc1,"inconclusive [cytotoxic, single point]",
COc1ccccc1Nc1nc(N)nc(CCl)n1,active: 11.6 µM,
CC(=O)Nc1nc(C)nc(-c2ccccc2OC(C)=O)n1,,inactive: -2.08%
OC1(c2ccc(Cl)cc2)CCN(Cc2cn[nH]c2-c2ccc(F)cc2)CC1,"inconclusive [cytotoxic, partial curve]",
Cc1cc(=O)[nH]c(SCC(=O)C23CC4CC(CC(C4)C2)C3)c1C#N,"inconclusive [cytotoxic, partial curve]",
COc1cc(-c2ccc3sc(-c4ccsc4)c(C#CCO)c3c2)cc(OC)c1OC,"inconclusive [cytotoxic, single point]",
O=C1N=C2SCCN2/C1=C\c1ccc(Cl)cc1,"inconclusive [cytotoxic, single point]",
CC(C)(C)NC(=O)C(c1ccccc1)n1c(=O)c(-c2cc3ccccc3[nH]2)nc2ccccc21 (centres undefined),"inconclusive [cytotoxic, single point]",
Nc1ncnc2c1ncn2[C@@H]1O[C@H](CNC(=O)[C@H](N)Cc2cscn2)[C@@H](O)[C@H]1O,,inactive: -3.04%

Structure (SMILES),Potency,"activity, negative = toxicity"
COc1ccc(-c2cnc3c(NC(C)=O)cc(-c4ccccc4OC)cn23)cc1OC,active: 25.9 µM,
CC1(C)Cc2nc3sc4c(=O)n(CC(=O)NCc5ccccc5)cnc4c3cc2CO1,active: 3.55 µM,
Cn1c2ccccc2c2cnn(CC(=O)NCCCN3CCN(c4ccccc4F)CC3)c(=O)c21,,inactive: 0%
Cc1ccc(-c2csc(NC(=S)NC(=O)/C=C/c3ccco3)n2)cc1,active: 7.94 µM,
CC(=O)c1ccc(N2CCN(C(=O)Nc3ccc(C(C)C)cc3)CC2)cc1,"inconclusive [cytotoxic, partial curve]",
O=C(Nc1ccccc1)N1CCn2c1nc1ccccc12,,inactive: -12.7%
CC(=O)Nc1ccccc1N(CC(O)Cn1c2ccccc2c2ccccc21)S(=O)(=O)c1ccc(C)cc1 (centres undefined),active: 14.6 µM,
COc1cccc(/C=N/Nc2nc(-c3cccnc3)nc3ccccc23)c1,,inactive: 3.34%
CCN(CC)c1ccc(/C=N/NC(=S)NCc2ccco2)cc1,"inconclusive [cytotoxic, single point]",
CCc1nnc(NS(=O)(=O)c2ccc(N=Cc3c(C)[nH]n(-c4ccc(C)c(C)c4)c3=O)cc2)s1,active: 20.6 µM,
OC(CNCc1ccccc1F)COc1cccc2ccccc12 (centres undefined),active: 14.6 µM,
CCN(CC)S(=O)(=O)c1cc(C(=O)Nc2cc(C)on2)c(Cl)cc1Cl,"inconclusive [cytotoxic, single point]",
Cc1ccc2c(c1)C(c1ccccc1)N(C(=O)CC(C)C)CC(=O)N2 (centres undefined),,inactive: 0.206%
Cc1ccc(NNC(=O)c2cc(C)on2)c(C)c1,active: 8.2 µM,
O=C(Nc1cccc(NC(=O)c2ccccc2)n1)c1ccccc1,,inactive: 17.5%
CCCc1nc2cc(C)c(Br)c(C)n2c1Cc1ccc(OC)cc1C,"inconclusive [cytotoxic, single point]",
CCn1cc(C(=O)N[C@@H](CCSC)C(=O)NC(C)(C)CO)c(=O)c2cc3c(cc21)OCO3,,inactive: 0.568%
CCOc1ccccc1N1CCN(C(=O)c2ccccc2)CC1,,inactive: 7.85%
CCOC(=O)CSc1cc(-c2ccccc2)nc2ncnn12,active: 18.4 µM,
Cc1ccc(S(=O)(=O)N2CCCCC2)cc1NCC(=O)Nc1ccc(Br)cc1F,"inconclusive [cytotoxic, partial curve]",
COc1ccc(C(N)c2csc(Nc3cc(Oc4ccccc4)ncn3)n2)cc1 (centres undefined),"inconclusive [cytotoxic, single point]",
Cc1ccc(NC(=O)C(C)Sc2nnc(-c3cccnc3)n2-c2ccccc2)cc1 (centres undefined),"inconclusive [cytotoxic, single point]",
C#CCN(C[C@H]1[C@H](OC(=O)NCc2ccc(OC)c(OC)c2)[C@H](OC(=O)NCc2ccc(OC)c(OC)c2)C[C@H]2C(=O)N(c3ccccc3)C(=O)[C@@H]12)S(=O)(=O)c1ccc(C)cc1,,inactive: -1.25%
CC(=O)c1ccc(Nc2c3c(nc4ccccc24)CCCC3)cc1,"inconclusive [cytotoxic, single point]",
